Source: PMC10726135
The other results are listed elsewhere or left out. At the low end of the ranking, values are background and their order means little. The protein was read in a cell extract, so binding may be indirect.

The sequences below were run against T1, HNF4alpha2 (COS-7 nuclear extract) (UniProt P41235) (assay: protein-binding microarray). Settings: COS-7 nuclear extract on double-stranded Agilent 4x180k PBM; binding buffer, salt, pH and temperature not given; high values mean tight binding; double strand, one strand shown; sequences stand for … in …GCCTAGGGAGATTAGAGTATCGGTCGA.
T1 sequence: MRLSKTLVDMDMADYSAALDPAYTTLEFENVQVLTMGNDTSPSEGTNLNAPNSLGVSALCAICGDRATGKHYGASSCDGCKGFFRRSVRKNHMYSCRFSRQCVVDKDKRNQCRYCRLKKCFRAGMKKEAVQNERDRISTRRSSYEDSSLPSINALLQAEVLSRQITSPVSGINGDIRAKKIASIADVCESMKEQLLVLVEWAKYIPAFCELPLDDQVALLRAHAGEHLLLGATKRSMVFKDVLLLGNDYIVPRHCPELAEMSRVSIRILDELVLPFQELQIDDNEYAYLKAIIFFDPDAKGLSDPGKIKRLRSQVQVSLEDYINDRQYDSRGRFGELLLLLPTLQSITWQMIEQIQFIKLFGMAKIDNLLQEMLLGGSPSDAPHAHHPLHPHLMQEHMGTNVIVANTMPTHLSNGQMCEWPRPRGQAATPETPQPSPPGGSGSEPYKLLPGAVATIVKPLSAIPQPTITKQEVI
AACTGCTATTGGTTGTCAGACTGGTGTAGT was tested, and the binding signal (log2 normalized intensity) was 1.95. With TCAGCTGCCTAGAGGCCTGGGAATGCCTAG the binding signal (log2 normalized intensity) was -0.931. With TATCAGGCAGGATATTCCAAAAGGGCAGCA the binding signal (log2 normalized intensity) was 0.153. CTAGTACTCCTGCCCCTGTGCAATACTTTC gave a binding signal (log2 normalized intensity) of 2.48. With TTGCACTGCTGGTTTTTGTCAAAGATAGTT the binding signal (log2 normalized intensity) was 1.49. For GGTGGATACTTTGACTGAGACTGCCTCAAA, the binding signal (log2 normalized intensity) was -1.09. With CAGCTTCCCCACTTATTACCGGTGTGACTT the binding signal (log2 normalized intensity) was 2.01. TCAGGCCGTGGTGTATGATGACGCCACGCC showed a binding signal (log2 normalized intensity) of -1.15. Work on ACGCTGCTAATCCTACTTTATCTAAGTAAA yielded a binding signal (log2 normalized intensity) of -0.953. TTTCCATCGCCCTTATCAGAAGGAAAGTCT gave a binding signal (log2 normalized intensity) of 1.02. For CGAAGATAACCTACTTAAAAAGAAATAGCC, the binding signal (log2 normalized intensity) was -1.06. For TGTATGTGGCAGGCACTTAGCAAATATTTA, the binding signal (log2 normalized intensity) was -0.293. AAAAGAGAGAGAATGTCCTCCCTGAGTCAG was tested, and the binding signal (log2 normalized intensity) was -1.15. For ACTATTTACTTAATCCCTTGGAATGTCCTT, the binding signal (log2 normalized intensity) was 1.41. CCCCTCTCTACTGGTAAGCAAATATTTGAA showed a binding signal (log2 normalized intensity) of 2.43. For TGCTCTGGACATACCTCTAATCATAAAGCT, the binding signal (log2 normalized intensity) was -1.11. Work on TGGTAGGATTGTTTGGGGATTACACTAGAT yielded a binding signal (log2 normalized intensity) of -1.01. TCCACAGTGCACATTCCAGAGAAATAGTGA was tested, and the binding signal (log2 normalized intensity) was -0.955. Work on TGGACCTCATTAATAGGGCAAGAGCTCAGA yielded a binding signal (log2 normalized intensity) of -1.13. For CCTTCCCTCTGTCTTCAAAACCACACCCCT, the binding signal (log2 normalized intensity) was 4.32. With CTGGAGCAAAGGTCACTCTTGCTATGCCTT the binding signal (log2 normalized intensity) was 4.82. AAGGTGTCAGGACCTTTCTTTATGGACCTT showed a binding signal (log2 normalized intensity) of 3.94. AAGACATGAAAAGTGGAATGCGCTTTCATG gave a binding signal (log2 normalized intensity) of -1.09. For ATTGGAATGAGCCTCCTGAAGATCCCCTGT, the binding signal (log2 normalized intensity) was 2.41. For CCCATCACTACTCCAGGGAGAAACCTGCCA, the binding signal (log2 normalized intensity) was -1.08. With GGAAGCTGGGCAGGCGCCGACTGCCAGGAG the binding signal (log2 normalized intensity) was -1.18. GGCATTCTGACCTTTGTCTCCAGGCAAACT showed a binding signal (log2 normalized intensity) of 4.88. Work on GGCTTGAGCAGCTGGTGGAGGCGGTGCCAT yielded a binding signal (log2 normalized intensity) of -0.801. GTCTGAGATATCTTTCTCTATAGTAATCTT gave a binding signal (log2 normalized intensity) of 0.563. With CTCAGCACATGGCAGTGTACACTAGCCAAA the binding signal (log2 normalized intensity) was -1.27. In the case of ATGTTGGGCAACTACCTCAAAGTTTTGTTA, the binding signal (log2 normalized intensity) is reported as 0.0615. Work on GGGTCTAGGTTGGAGGAGCTGAACTGTAAC yielded a binding signal (log2 normalized intensity) of 1.12. CTAATAAATGATTCATTCAGCAAATATTGA gave a binding signal (log2 normalized intensity) of -1.07. GCTGTGCCGAGCCTGCAGGTGAATGGAAAC gave a binding signal (log2 normalized intensity) of -0.549. Sequence CTTAAGAACGCTTGTGATTACACTGGGCTC has a binding signal (log2 normalized intensity) of -1.17. Work on TGTGTTCTTGTTTGCTAAGTGAGAACACCG yielded a binding signal (log2 normalized intensity) of -1.12. In the case of GCTGTTAAATGGAGTGGAATTTGGAGAGAA, the binding signal (log2 normalized intensity) is reported as 0.581. GGTTCTCAGCTGACATTGGTGGAATCTGAA gave a binding signal (log2 normalized intensity) of 1.13. AAGAGATTTCCTGCAGGTGGTGACCCCAGA was tested, and the binding signal (log2 normalized intensity) was 4.42. GTGTAATGGTTAGCACTCTGGACTCTGAAT showed a binding signal (log2 normalized intensity) of 3.08. With CTGGGACTTGCCTTTGTCCATTCACTTCCC the binding signal (log2 normalized intensity) was -0.128. GCTGCAGCTGGGCTATACAATTCCAGCAAG gave a binding signal (log2 normalized intensity) of -1.27. ATACGTTTAACAGTTCCTCCTGGAATCTGG was tested, and the binding signal (log2 normalized intensity) was 1.46. For TCCGTTAACAGCGGCATTCCTGTCAAAATC, the binding signal (log2 normalized intensity) was -1.11. For CAGCCTAACAGGATTTTTGCTGAAGACAGG, the binding signal (log2 normalized intensity) was -0.615. For TGGGGCCAAAAAATTCCAGGCACAGTTACT, the binding signal (log2 normalized intensity) was -1.16. Work on CCATCGAATTCTTGTCCAACTCCCCTCCCA yielded a binding signal (log2 normalized intensity) of 4.05. AACAAATTGAGAAAGATTAAGAGGCTACAA showed a binding signal (log2 normalized intensity) of -1.1. TGGTACTATGACCTTTCACCTTTTAGCTTG showed a binding signal (log2 normalized intensity) of 5.81. For CCTGCCTCTCCTCTGAGCTTCATCCTGACC, the binding signal (log2 normalized intensity) was 1.62. TGAATTTTATCACTCCATCAAGGGGATTAG was tested, and the binding signal (log2 normalized intensity) was -1.05. In the case of TGTTTTCAATGACTACCTGTTACCCACCTG, the binding signal (log2 normalized intensity) is reported as 0.766. For GGGAGAGTGAGTGAGTGTGTGTGTGTAAAA, the binding signal (log2 normalized intensity) was 2.5. Sequence TGTGCTGCCCCCGATAGCACTATTAGTCTT has a binding signal (log2 normalized intensity) of 2.74. With ACTGCGTCCAGCCACAATTAATGTACCCCC the binding signal (log2 normalized intensity) was 4.12. TAACCAGGGGTGGGGACCTTTGGGCTCTGA showed a binding signal (log2 normalized intensity) of 2.24. GTGGTATTTGCTCTGTCATCAACGTATCTG was tested, and the binding signal (log2 normalized intensity) was 0.863. CTTTGATCTTCTTACCCCTTTGCTGATTAC gave a binding signal (log2 normalized intensity) of 2.7. Work on AACAATGTTATCTTTTCAAGGATGTTTATA yielded a binding signal (log2 normalized intensity) of 1.07. Sequence CGATAACCCTCTGGGGCCGGGAGCAGGGAG has a binding signal (log2 normalized intensity) of -1.11. Work on AAGCCACGGGCTATTTGGACTAGGCAAAAG yielded a binding signal (log2 normalized intensity) of -0.0946. Sequence TCACCCAGAAAAGGCTGTAAACTCACTCTG has a binding signal (log2 normalized intensity) of -1.17. In the case of GCACAAGAGGGCAGTATTTGCTTACAGTCT, the binding signal (log2 normalized intensity) is reported as -1.09. For TTATTTAAATTTCTTGAGGCATTTATTACA, the binding signal (log2 normalized intensity) was 0.233. ATACTCAGAGCCGCACCCAGCTTTCATCTC was tested, and the binding signal (log2 normalized intensity) was -1.19. With GGCAGTCGTGATAGTGACCACCTGGTGGAC the binding signal (log2 normalized intensity) was 1.02. AGTCAAAAACCAGTTATTTCAGTTATTTAC showed a binding signal (log2 normalized intensity) of 0.0871. In the case of ATGACTCATAAAGAACAGTTATTCTTAGCT, the binding signal (log2 normalized intensity) is reported as -1.17. Sequence AATTACCTGGACTCTAGAGCCAGACTAGTA has a binding signal (log2 normalized intensity) of 1.26. For GTTCTATCGGAGAACGTTCCAAACCTACAC, the binding signal (log2 normalized intensity) was -1.1. TTTGGCCCCCAGAGCCCCGTGTCTCCCTAC gave a binding signal (log2 normalized intensity) of 4.6. AGGTGAAACTCCAGGCTCCAAGGGTATAGG showed a binding signal (log2 normalized intensity) of -1.29. ATGGGGAGCAGTGGGAGGTGAGGAAAACGG gave a binding signal (log2 normalized intensity) of -0.65. With CACCCAGGCTGAAGTCCAGTAGCTCAATCA the binding signal (log2 normalized intensity) was -1.1. Work on AAGGCACAATCAGGGCTAAAGTCAGGGGCA yielded a binding signal (log2 normalized intensity) of -1.19. AGCTGGCCTCACTAAGTCCTGCTTAGAGCA showed a binding signal (log2 normalized intensity) of -1.14. ACGTCTAGAGCTGTCCAGCAGACAATGGGA was tested, and the binding signal (log2 normalized intensity) was -0.938. GATAGTAAAATGGACTTTGTGGGCCAAAAG was tested, and the binding signal (log2 normalized intensity) was 2.49. CAAGCCAGAAAGATGTTTGCCCCAAGATAA showed a binding signal (log2 normalized intensity) of 1.94. ACTCAGGCATTCTGACCTTTGTCTCCAGGC was tested, and the binding signal (log2 normalized intensity) was 5.69. In the case of CACACTCACAGAACACAGTGTTTGCTTTAG, the binding signal (log2 normalized intensity) is reported as -1.11. Work on TCATACCACATGGATGGATTCAGATCCAGT yielded a binding signal (log2 normalized intensity) of -0.961. Sequence GGAAAGAACAGGTCAAAGGTCAGTTTCTTT has a binding signal (log2 normalized intensity) of 7.28. Work on TCTGATGCGGCTTCTCATACTACTGTACTT yielded a binding signal (log2 normalized intensity) of 1.01. With GTGCACCCTGGTCTCTCTTACCCAACCAAA the binding signal (log2 normalized intensity) was 2.82. Work on AAGGGTAATCTGCTTTTCTCGAAGCCAACT yielded a binding signal (log2 normalized intensity) of -1.07. Work on AGTCTGTTATCCCTAGGAAGGATAAGAGCA yielded a binding signal (log2 normalized intensity) of -0.509. GCCTCCCCCTCTTTATCTCCTGGAATCCAA gave a binding signal (log2 normalized intensity) of 2.25. Work on TACCTTTCTTATCATAAGTAAAAAGAGAGA yielded a binding signal (log2 normalized intensity) of 0.794. TAACAATGCTGATGGGGACCACAGAGAACT showed a binding signal (log2 normalized intensity) of -1.12. Sequence TCTCTGCCCTCTTCCCTCTACCTCTGTTCT has a binding signal (log2 normalized intensity) of 2.16. GCCAGGCAGGAAGGAGCCTGCTTTGCTGAG was tested, and the binding signal (log2 normalized intensity) was -0.938. In the case of GAACATGGACTTTGAACCTCTCTTCTTTTT, the binding signal (log2 normalized intensity) is reported as 7.25.
